Measurements taken from paper PMC6919601, “Identification of Plasmodium dipeptidyl aminopeptidase allosteric inhibitors by high throughput screening” (PLoS ONE, 2019).
Screen size: about 110,000 compounds; about 230 (0.21%) showed an effect of 50% or more. The list shows a part of the results.

biological target: DPAP1 (Plasmodium falciparum, UniProt Q8IIJ9); experiment: primary screen, percent inhibition; read by cleavage of a fluorogenic dipeptide substrate; higher = more effect of the substance; parameters: species or system P. falciparum D10 trophozoite lysates; single well
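Also: 30 min substrate incubation versus DMSO and 10 µM JCP410 controls.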

Chain of DPAP1 (Q8IIJ9 whole entry, looked up): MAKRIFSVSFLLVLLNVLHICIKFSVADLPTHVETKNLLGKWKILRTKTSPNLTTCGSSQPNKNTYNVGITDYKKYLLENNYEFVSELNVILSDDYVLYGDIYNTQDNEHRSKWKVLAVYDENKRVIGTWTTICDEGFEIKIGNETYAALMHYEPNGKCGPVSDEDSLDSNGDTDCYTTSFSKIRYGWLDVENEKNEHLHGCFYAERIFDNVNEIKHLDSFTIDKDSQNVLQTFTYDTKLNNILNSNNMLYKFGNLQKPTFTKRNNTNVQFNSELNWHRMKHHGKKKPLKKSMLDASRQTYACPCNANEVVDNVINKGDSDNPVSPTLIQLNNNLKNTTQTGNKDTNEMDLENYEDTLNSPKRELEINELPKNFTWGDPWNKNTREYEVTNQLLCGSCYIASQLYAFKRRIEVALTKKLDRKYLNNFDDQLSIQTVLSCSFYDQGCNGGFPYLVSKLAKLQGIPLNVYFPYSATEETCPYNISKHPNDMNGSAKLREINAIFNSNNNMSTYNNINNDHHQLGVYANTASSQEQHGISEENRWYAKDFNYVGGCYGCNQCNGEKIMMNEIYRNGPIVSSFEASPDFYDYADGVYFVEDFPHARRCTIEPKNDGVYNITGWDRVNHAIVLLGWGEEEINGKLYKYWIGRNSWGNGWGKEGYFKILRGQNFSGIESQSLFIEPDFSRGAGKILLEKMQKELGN

SMILES	% Inhibition @ 10 uM [%]
CCN(CC)CC(=O)N1CC(=O)Nc2ccccc21	-6.49
Clc1cccc(Cl)c1CN1CCN(C/C=C/c2ccccc2)CC1	1.38
CCCO/C(O)=C1/C(C)=NC2=C(C(=O)CCC2)C1c1ccc(SC)cc1 (stereo not drawn)	2.05
Cc1cc2nc(-c3cccc(N)c3C)oc2cc1C	-8.36
O=C1C(Cl)=C(Cl)C(=O)N1CCOCCN1C(=O)C(Cl)=C(Cl)C1=O	1.25
O=C(Nc1ccccc1C(F)(F)F)c1ccccc1Br	3.85
COc1ccc(-c2noc(CN(C(=O)c3ccc4c(c3)OCO4)C(C)C)n2)cc1	2.5
Cc1cc(NC(=O)c2sc3nc4c(cc3c2N)N2CCC4CC2)on1	2.77
O=C(NC1CCCCCC1)C1CCCN(c2nc3ccccc3n3cccc23)C1 (stereo not drawn)	5.56
COc1ccc(/C=C2/SC(Nc3cccc(C)c3)=NC2=O)c(OC)c1	5.24
Cc1ccc(C(=O)NCCc2nc(-c3ccccc3)cs2)cc1	-5.27
COCCNC(=O)C1CCCN(C2N=CNc3onc(C)c32)C1 (stereo not drawn)	1.91
CS(=O)(=O)N1CCC(C(=O)NCCN2CCCCCC2)CC1	-1.34
CC(NC(=O)Cc1noc2ccccc12)c1ccc2c(c1)OCCO2 (stereo not drawn)	-5.05
CCOC(=O)C1CCCCN1CC1=CC[C@H]2C[C@@H]1C2(C)C (stereo partly drawn)	-1.78
CC(C)C[C@@H](C(=O)NCC#N)N(C)C(=O)c1ccc(-c2csc(N(C)C)n2)cc1	-3.97
CCOC(=O)c1c(C)c(C(=O)NCc2ccc3c(c2)OCO3)c(C)n1CC	1.72
Cc1ccc(CNC(=O)CSc2nc3c(c(=O)n2CCc2ccccc2)SCC3)cc1	-5.54
CCOc1ccc(CNCc2c(C(=O)O)n(Cc3ccccc3)c3cc(OC)ccc23)cc1	-3.27
Cc1ccccc1CN(CCO)Cc1ccccc1	-3.57
COc1cc(OC)c(C2C(C#N)=C(N)OC3=C2C(=O)CC(C)C3)cc1Br (stereo not drawn)	-3.79
COC(=O)/C(C#N)=C/c1c(Oc2ccc(Br)cc2)nc2ccccn2c1=O	-4
COc1cccc(C2=N/C(=C\c3sccc3C)C(=O)O2)c1	2.92
O=C(Nc1cccc2c(NC(=O)C(F)(F)F)cccc12)C(F)(F)F	5.51
CS(=O)(=O)N(CC(=O)NC1CCCCC1)c1cccc(Br)c1	-3.49
Cc1cc(OCCCCN2CCOCC2)cc(C)c1Cl	6.54

SMILES	% Inhibition @ 10 uM [%]
N#Cc1ccccc1Cn1c(-c2cncs2)nc2ccccc21	3.84
OCCNCC1(O)C2CC3CC(C2)CC1C3 (stereo not drawn)	2.65
COc1ccc(CCNC(=O)C2Cc3ccccc3CN2S(=O)(=O)c2cccs2)cc1OC (stereo not drawn)	-0.123
Cc1ccc(CN2CCC(CNS(=O)(=O)c3ccc(-c4cc(C(F)(F)F)no4)s3)C2)cc1 (stereo not drawn)	1.05
O=C(O)c1ccc2c(c1)C(=O)N(c1cnc(O)nc1O)C2=O	-7.27
COc1ccc(OCC(=O)Nc2c(C(=O)c3ccc(OC)cc3)oc3ccccc23)cc1	-0.99
OCc1nc2ccccc2n1CC(O)Cn1ccc2ccccc21 (stereo not drawn)	3.35
CCOC(=O)c1ccc2nc(Nc3nc4c(OC)cccc4s3)sc2c1	0.458
Cc1ccccc1Cn1cc(NC(=O)COc2ccccc2)cn1	0.512
Cn1c2ccc(F)cc2c2nnc(S)nc21	74
Brc1cccc(CN2CCN(c3ccccn3)CC2)c1	3
Cc1ccc(CS(=O)(=O)Cc2ccc(C(=O)NC3CCCC(C)C3C)o2)cc1 (stereo not drawn)	3.79
Nc1c(C(=O)Nc2ccccc2C(=O)O)sc2nc3c(cc12)CCCCC3	15.8
Clc1ccc(CNc2ccc(CNc3nc[nH]n3)cc2)cc1	-3.43
CCN(CC)C(=O)Oc1cc(=O)n(C)c2ccccc12	6.37
COc1ccccc1NC(=O)COc1cc(C)ccc1C(C)C	-11.4
O=C(CN1Cc2ccccc2C1=O)Nc1ccccn1	-4.1
O=C(NCc1ccccn1)c1ccc(NC(=O)c2ccco2)cc1	-9.53
CC(NC(=O)c1csc2ccccc12)c1ccccc1 (stereo not drawn)	-8.78
COCc1cc(C)nc(Nc2ccc(C)cc2C)c1C#N	-0.436
COc1ccc(C(=O)N2CCN(CC(=O)N3CCOCC3)CC2)cc1	6.33
Cn1c(C(=O)N2CCCCC2)cc2sccc21	1.89
CCc1ccc(-n2c(C)nnc2SCc2nc(-c3ccc(C)cc3)no2)cc1	-2.43
CC(C)c1ccccc1NC(=O)c1ccc(CN2CCOCC2)cc1	3.04
CN(CCCNC(=O)c1cnn(-c2ccc(F)cc2)c1-n1cccc1)C1CCCCC1	-0.913
